PubChem BioAssay AID1030 (National Center for Advancing Translational Sciences (NCATS), 2008)
Screen size: about 220,000 compounds; about 16,000 (7.3%) were called active. The shares of active, inactive and inconclusive entries below differ from those in the screen. Calls come from the whole dose curve; as a rule, active = well fitted inhibition curve with a large enough effect (not every such curve was filed as active); inconclusive = small, poorly fitted or top-dose-only effect, or another doubt; inactive = no such curve, though single readings can be large or run the other way. Where the call is inconclusive, the potency comes from a doubtful curve fit.

Biological target: Aldehyde dehydrogenase 1A1 (Homo sapiens) (UniProt P00352)
Sequence of UniProt P00352 (P00352 whole entry, looked up): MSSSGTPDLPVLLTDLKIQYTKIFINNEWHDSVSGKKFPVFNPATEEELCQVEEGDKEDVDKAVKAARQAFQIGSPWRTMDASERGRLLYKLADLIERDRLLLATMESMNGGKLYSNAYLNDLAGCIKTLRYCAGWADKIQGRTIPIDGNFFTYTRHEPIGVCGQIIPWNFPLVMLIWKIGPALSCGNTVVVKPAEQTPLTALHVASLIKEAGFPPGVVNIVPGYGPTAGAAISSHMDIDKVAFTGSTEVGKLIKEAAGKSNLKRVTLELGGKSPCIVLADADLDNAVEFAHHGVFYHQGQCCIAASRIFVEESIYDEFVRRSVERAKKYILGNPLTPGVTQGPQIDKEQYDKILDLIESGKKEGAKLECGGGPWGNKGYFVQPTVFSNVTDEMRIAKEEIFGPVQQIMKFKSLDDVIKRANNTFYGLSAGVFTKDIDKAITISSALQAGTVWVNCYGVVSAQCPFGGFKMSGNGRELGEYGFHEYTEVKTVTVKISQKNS
Assay: qHTS Assay for Inhibitors of Aldehyde Dehydrogenase 1 (ALDH1A1)
Conditions: Purified ALDH1A1, NADH fluorescence, propionaldehyde substrate; series mostly up to 75.3 µM
Potency is the fitted concentration of half-maximal effect; tags give direction and shape of the fitted curve.

Potency, active:
CCN1C(=O)/C(=C/C=C2/CCCN2C)OC1=S 2.82 µM
O=C(Nc1nc(-c2ccco2)c(-c2ccco2)s1)C1CC(=O)N(c2ccc3c(c2)OCCO3)C1 (centres undefined) 1.12 µM
Cc1ccc(NCc2nnc(SCC(=O)Nc3ncc(C)s3)n2CC2CCCO2)c(C)c1 (centres undefined) 4.47 µM
Cc1cc(C)c(C)c(S(=O)(=O)N2CCN(C(=O)c3cc(=O)[nH]c4ccccc34)CC2)c1C 14.1 µM
Cc1ccc(S(=O)(=O)N/N=C\c2ccc(Cl)c([N+](=O)[O-])c2)cc1 0.501 µM
O=c1c2c3c(sc2n(CCN2CCOCC2)c(=O)n1Cc1ccco1)CCCCC3 7.94 µM
O=C(CSc1n[nH]c(-c2ccccc2)n1)Nc1ccc(N2CCOCC2)cc1 22.4 µM
O=c1cc(CSc2nnnn2-c2ccccc2)nc2sccn12 12.6 µM
COc1ccc(C(=O)NC(=S)Nc2cccc(NC(=O)c3ccco3)c2)cc1[N+](=O)[O-] 3.55 µM
CN(C)C(=S)Nc1nc2ccccc2s1 7.94 µM

Potency, inconclusive:
CC(=O)c1ccc(-c2ccc(C(=O)N3CCN(c4ccc(F)cc4)CC3)o2)cc1 44.7 µM [inhibitor, single point]
CCOC(=O)c1cc2nc(-c3ccco3)cc(C(F)(F)F)n2n1 25.1 µM [inhibitor, partial curve]
Cc1nnc(SCC(=O)Nc2sc3c(c2C(=O)c2ccccc2)CCCC3)s1 39.8 µM [inhibitor, single point]
CCN1/C(=N\N)c2cccc3cccc1c23 39.8 µM [inhibitor, single point]
Cc1cc(/C=N/NC(=O)c2cccnc2)c(C)n1CC(C)C 39.8 µM [inhibitor, single point]
COCCn1c(=O)c(CCc2ccccc2)nc2cnc(Nc3ccccc3)nc21 11.2 µM [inhibitor, single point]
CCOC(=O)c1[nH]c2ccc(OC)cc2c1NC(=O)CCN1CCN(Cc2ccccc2)CC1 28.2 µM [inhibitor, partial curve]
O=C(CSc1nc2ccccc2c(=O)n1CCCO)N1CCc2ccccc21 35.5 µM [inhibitor, single point]
Cc1c(C)c2ccc(OC3CCCCC3=O)cc2oc1=O (centres undefined) 28.2 µM [inhibitor, partial curve]
Cc1cc(NS(=O)(=O)c2ccc(NC(=S)NC(=O)c3cccnc3)cc2)no1 39.8 µM [inhibitor, single point]
O=C(Nc1ccc2c(c1)OCCO2)c1cc2sccc2n1Cc1ccc(F)cc1 39.8 µM [inhibitor, single point]
CCN1C=C(C(=O)OC)C(c2cccc(OC)c2OC)C(C(=O)OC)=C1 20 µM [inhibitor, partial curve]
COC(=O)c1ccc(C(/C=C/[C@@H](C)C(=O)N(C)Cc2ccccc2)NC(=O)OCc2ccccc2)cc1 (some centres undefined) 14.1 µM [inhibitor, partial curve]
N#Cc1c(NC(=O)CSc2nc3c(c(C(F)(F)F)n2)CCc2ccccc2-3)sc2c1CCCC2 39.8 µM [inhibitor, single point]
COc1ccc(NC2CC(=O)N(C)C2=O)cc1 (centres undefined) 35.5 µM [inhibitor, single point]
Nc1c(S(=O)(=O)c2cc(Cl)ccc2Cl)c2nc3ccccc3nc2n1CCN1CCOCC1 28.2 µM [inhibitor, partial curve]
COc1ccc(CCNC(=O)CSc2nnc(CNC(=O)c3ccco3)o2)cc1OC 22.4 µM [inhibitor, single point]
Cn1c(=O)n(C)c2cc(/C=N/NC(=O)c3cccc(Br)c3)ccc21 39.8 µM [inhibitor, single point]
CC(=O)c1cc(-c2ccccc2)n(CCC(=O)NC2CCCCC2)c1C 15.8 µM [inhibitor, partial curve]
O=C(CSc1ncn(-c2ccccc2)n1)c1cccs1 39.8 µM [inhibitor, single point]
COCCn1c(SCC(=O)Nc2nc(C)c(Cl)cc2Cl)nc2ccccc21 20 µM [inhibitor, partial curve]
O=C(c1cccc(S(=O)(=O)N2CCc3ccccc3C2)c1)N1CCN(c2ccc(O)cc2)CC1 22.4 µM [inhibitor, single point]
Cc1cc(=O)oc2cc(Oc3ncccn3)ccc12 39.8 µM [inhibitor, single point]
Cc1nn(Cc2ccccc2)c(Cl)c1C(=O)NCCc1ccc(Cl)cc1 3.16 µM [inhibitor, full curve]

Potency, inactive:
CN(C)c1ccnc2sc3c(SCc4ccc(Cl)cc4)ncnc3c12
Nc1cccc(CN2CCCC2)c1
Cc1ccc(Nc2nc(N/N=C\c3ccc4c(c3)OCO4)nc(N3CCOCC3)n2)cc1
O=C(CN(c1ccc2c(c1)OCCO2)S(=O)(=O)c1ccccc1)N1CCN(Cc2ccccc2)CC1
COc1ccc2nc(NC(=O)C3COc4ccccc4O3)sc2c1 (centres undefined)
Cc1ccc(CN(Cc2ccccc2)C(=S)Nc2ccccc2C)o1
O=C(Nc1nc2ccccc2s1)c1ccc(Cl)s1
CC(C)C(=O)N1CCN(C2=NS(=O)(=O)c3ccccc32)CC1
O=C(NC1c2ccccc2-c2ccccc21)c1ccco1
CC1CCc2cc(F)cc3c(=O)c(C(=O)O)cn1c23 (centres undefined)
O=c1cc(CO)[nH]cc1OCc1ccccc1
COc1cc2c(cc1OC)-c1c(oc3cc(O)cc(O)c3c1=O)CO2
Cn1ccnc1SCC(=O)Nc1cccc2ccccc12
Cc1cc(NC(=O)COC(=O)c2c(C)nn(-c3ccccc3)c2C)no1
O=S(=O)(Nc1nccs1)c1ccc(Br)cc1
